Data: PubChem BioAssay AID686978 (National Center for Advancing Translational Sciences (NCATS), 2013)
Among all 420,000 compounds or so, about 64,000 (15%) were called active. This list was built around the results that the source calls inconclusive (neither active nor inactive); the mix of calls is not that of the screen. Calls follow the shape of the dose curve; as a rule, active = well fitted inhibition curve with a large enough effect; inconclusive = small, poorly fitted or top-dose-only effect; inactive = flat fitted curve, though single readings scatter. No potency is given beside an inconclusive call; the fits are too rough.

assay: qHTS for Inhibitors of human tyrosyl-DNA phosphodiesterase 1 (TDP1): qHTS in cells in absence of CPT; settings: DT40 Tdp1-/- hTDP1 cells, no CPT, ATP luminescence, 48 h; series mostly up to 46.2 µM; also: nearly all actives have a fitted effect of over 55% in size
How it was run: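 Chicken DT40 Tdp1-/- cells complemented with human TDP1, screened without camptothecin (DMSO vehicle only), 400 cells/well. Compounds pin-transferred, cells incubated at 37 °C for at least 48 hr. Growth read as ATP-dependent luminescence (CellTiter-Glo, 30 min at RT).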
Potency is read from the fitted curve at half-maximal effect; tags tell the direction and shape of the fitted curve.

Structure (SMILES) | Potency
O=C(Nc1cccc(F)c1)N1CC[C@@]2(CCCN(C(=O)c3csnn3)C2)C1 | inactive
CC(=O)Nc1ccc(NS(=O)(=O)c2ccc3ccccc3c2)cc1 | inconclusive [inhibitor, single point]
CCc1ccc(CSc2nc(-c3ccc(OC)cc3)nc3c2Cc2c(CO)cnc(C)c2O3)cc1 | inactive
N#C/C(=C\c1cccc([N+](=O)[O-])c1)C(=O)NCC1CCCO1 (centres undefined) | inactive
CCN(CC)CCCNC(=O)CCC(=O)Nc1ccc2nc(N3CCC(C)CC3)cc(C)c2c1 | inconclusive [inhibitor, single point]
COc1ccc(CNC(=O)COc2ccc(S(=O)(=O)N3CCOCC3)cc2)cc1 | inconclusive [inhibitor, single point]
COc1ccccc1-c1cc(C(=O)N2CCCCC2)no1 | inconclusive [inhibitor, single point]
CSCCC(NC(=O)c1cccc([N+](=O)[O-])c1)C(=O)O (centres undefined) | inactive
CCOC(=O)c1sc(NC(=O)C2CC(=O)N(c3ccc(OC)cc3)C2)nc1C (centres undefined) | inactive
Cc1noc(C)c1/C=N/Nc1ccc2ccccc2n1 | inactive
O=C(COc1coc(CN2CCc3ccccc3C2)cc1=O)N1CCOCC1 | inactive
CC(c1nnc(SCC(=O)N2CC(=O)Nc3ccccc32)n1Cc1ccccc1)N(C)C (centres undefined) | inactive
O=C(NNC(=S)Nc1cccc(C(F)(F)F)c1)c1ccc(Cl)cc1Cl | active: 25.9 µM
COc1cc(/C=N/NC(=S)NCCN2CCOCC2)cc(OC)c1OC | inconclusive [inhibitor, single point]
O=c1ccsc2ccccc12 | inactive
OCC1(Cc2ccccc2C(F)(F)F)CCN(Cc2ccncc2)CC1 | inconclusive [inhibitor, single point]
Cc1cc2c(cc3c(SCc4ccc(Cl)cc4)nncn32)o1 | inconclusive [inhibitor, single point]
COc1cc(CCCN2CCNC[C@H]2Cc2cccc3ccccc23)cc(OC)c1OC | inconclusive [inhibitor, single point]
O=c1c2ccccc2n(Cc2c(F)cccc2Cl)c(=O)n1CCc1ccccc1 | inactive
COc1ccc(NC(=O)CN2C(=O)NC(C)(C3CC3)C2=O)c(OC)c1 (centres undefined) | inactive
COc1cccc(/C=C2\SC(=S)N(CCCC(=O)N3CCCC3)C2=O)c1 | active: 20.6 µM
O=C(COc1ccc(S(=O)(=O)N2CCCC2)cc1)N1CCCCC1 | inactive
CCOc1cc(C2c3c(oc4ccccc4c3=O)C(=O)N2Cc2ccc(OC)cc2)ccc1O (centres undefined) | inconclusive [inhibitor, single point]
Nc1nc2ccccc2n1S(=O)(=O)c1ccc(Cl)cc1 | inconclusive [inhibitor, single point]
O=C(Nc1nnc(C2=COCCO2)o1)C1CCCCC1 | inactive

Structure (SMILES) | Potency
CN(C)c1ccc(/C=C2\C=Cc3ccccc32)c(F)c1 | inconclusive [inhibitor, single point]
CC(C)c1cccc(C(C)C)c1NC(=O)OC1CCCCC1 | inconclusive [inhibitor, single point]
OC(CNCc1cccc(Br)c1)c1ccccc1 (centres undefined) | inconclusive [inhibitor, single point]
CC(=O)Nc1cccc(-c2cc(C)c3cc4c(cc3n2)OCO4)c1 | inconclusive [inhibitor, single point]
Cc1ccn2c(=O)cc(COc3ccc(NC(=O)COc4ccc(C)c(C)c4)cc3)nc2c1 | inactive
O=C(O)C1C2C=CC(C2)C1C(=O)NCc1cccnc1 (centres undefined) | inactive
Cc1ccc2c(c1)C1(C(=O)N2)N2CCCC2C(C(=O)c2ccc3ccccc3c2)C12C(=O)Nc1ccccc12 (centres undefined) | inconclusive [inhibitor, single point]
COc1ccccc1NC(=O)Nc1ccnn1C1CCN(C(=O)C2CCOC2)CC1 (centres undefined) | inactive
O=C(N/N=C/c1ccc(Cl)cc1)c1ccc2nc[nH]c2c1 | inconclusive [inhibitor, single point]
COc1ccccc1/C=C/C(=O)OCC(=O)c1cc(C)n(C)c1C | inconclusive [inhibitor, single point]
Cn1c(C(=O)OCC(=O)NCCc2ccccc2)cc2sccc21 | inactive
Cc1cccc(Nc2c(-c3ccsc3)nc3nc(C)cc(C)n23)c1 | inconclusive [inhibitor, partial curve, poor fit]
O=C1c2ccccc2C(c2nnnn2-c2ccc3c(c2)OCCO3)N1CCOc1ccccc1 (centres undefined) | inconclusive [inhibitor, single point]
CC(=O)c1cc2cccc(OC3(C)CCN(Cc4ccc(-c5ccccn5)cc4)C3)c2o1 (centres undefined) | active: 18.4 µM
O=C(O/N=C/c1ccc(Br)cc1)c1ccc(F)cc1 | inactive
O=C(NCC1(c2ccccc2)CCCC1)C(=O)NCC1(c2ccccc2)CCCC1 | inactive
CN1/C(=C\C(=O)Nc2cccnc2)c2ccccc2CC1(C)C | active: 10.3 µM
CCN1CCN(Cc2ccc(NC(=O)c3cc(NC(=O)c4ccno4)cc(OC)c3)cc2C(F)(F)F)CC1 | active: 23.1 µM
CCOC(=O)c1c(C)[nH]c(C)c1S(=O)(=O)N(C)CC(=O)NCc1ccc(Cl)cc1 | inconclusive [inhibitor, partial curve]
COc1ccc(-n2cnc3cc(C(=O)NC4CCCCCC4)ccc32)cc1 | inconclusive [inhibitor, single point]
Cc1ccc(C(=O)c2oc3ccccc3c2NC(=O)Cc2coc3ccc(C)cc23)cc1 | inconclusive [inhibitor, single point]
COc1ccc(NS(=O)(=O)c2ccc(-c3n[nH]c(=S)n3Cc3ccccc3)cc2)cc1 | inactive
COc1cccc(C2CC(c3cccs3)=NN2C(=S)Nc2ccccc2)c1OC (centres undefined) | inconclusive [inhibitor, single point]
Cc1nn(CCC(N)=S)c2nc(-c3cccs3)cc(C(F)(F)F)c12 | inconclusive [inhibitor, single point]
